Experimental data taken from publication PMC4081100.
The entries are a selection whose mix differs from that of the whole data set. For part of these data: At the low end of the ranking, values are background and their order means little. The list shows a part of the results. For part of these data: The exact form of the protein is not confirmed.

How the values were obtained:
Assay in all cases: universal protein binding microarray (PBM)
Details in all cases: transcription factors of Arabidopsis thaliana; high values mean tight binding; most listed sequences are background and not binding sites; double strand, one strand shown
GST-NTL6(1-168) = GST-NTL6(1-168) (UniProt Q9SCK6)
GST-ANAC019 NAC domain = target: T1, GST-ANAC019 NAC domain (UniProt Q9C932)
T1 sequence: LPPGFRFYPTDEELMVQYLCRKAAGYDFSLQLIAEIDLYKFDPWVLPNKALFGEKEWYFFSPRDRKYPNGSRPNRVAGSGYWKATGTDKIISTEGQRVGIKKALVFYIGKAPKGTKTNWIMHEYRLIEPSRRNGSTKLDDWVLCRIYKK

GST-ANAC055(1-171) = target: T2, GST-ANAC055(1-171) (UniProt Q9LDY8)
T2 sequence: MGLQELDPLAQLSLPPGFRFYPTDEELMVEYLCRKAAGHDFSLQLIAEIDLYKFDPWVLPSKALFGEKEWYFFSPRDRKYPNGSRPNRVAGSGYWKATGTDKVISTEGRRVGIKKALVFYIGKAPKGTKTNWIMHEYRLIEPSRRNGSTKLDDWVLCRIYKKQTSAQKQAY

GST-NTL8 NAC domain = target: T3, GST-NTL8 NAC domain (UniProt Q9XIN7)
T3 sequence: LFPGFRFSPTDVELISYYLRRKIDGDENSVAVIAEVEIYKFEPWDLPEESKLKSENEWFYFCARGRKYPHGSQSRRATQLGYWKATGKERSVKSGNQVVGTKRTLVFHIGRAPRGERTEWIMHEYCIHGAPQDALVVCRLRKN

GST-VND3 NAC domain = target: T4, GST-VND3 NAC domain (UniProt Q9FH59)
T4 sequence: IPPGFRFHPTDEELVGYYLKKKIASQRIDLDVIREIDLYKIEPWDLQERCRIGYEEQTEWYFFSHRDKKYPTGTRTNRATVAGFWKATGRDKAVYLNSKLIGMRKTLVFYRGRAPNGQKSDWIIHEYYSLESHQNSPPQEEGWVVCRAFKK

GST-VND7 NAC domain = target: T5, GST-VND7 NAC domain (UniProt Q9C8W9)
T5 sequence: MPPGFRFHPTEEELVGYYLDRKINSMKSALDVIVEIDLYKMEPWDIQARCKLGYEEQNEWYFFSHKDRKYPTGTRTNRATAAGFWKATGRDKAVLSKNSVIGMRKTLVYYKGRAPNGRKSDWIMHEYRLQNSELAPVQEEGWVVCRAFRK

[1] = target: T6, GST-VOZ2 (Arabidopsis thaliana) (UniProt Q9SLB9)
T6 sequence: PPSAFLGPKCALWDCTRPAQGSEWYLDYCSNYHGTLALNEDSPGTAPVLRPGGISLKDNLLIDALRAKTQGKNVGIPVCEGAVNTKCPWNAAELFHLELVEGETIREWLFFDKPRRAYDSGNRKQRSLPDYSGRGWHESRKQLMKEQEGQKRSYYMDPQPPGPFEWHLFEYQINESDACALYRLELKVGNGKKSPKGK

GST-WRKY1(266-371) = GST-WRKY1(266-371) (UniProt Q9SI37)
GST-ATAF1 NAC domain = target: T7, GST-ATAF1 NAC domain (UniProt Q39013)
T7 sequence: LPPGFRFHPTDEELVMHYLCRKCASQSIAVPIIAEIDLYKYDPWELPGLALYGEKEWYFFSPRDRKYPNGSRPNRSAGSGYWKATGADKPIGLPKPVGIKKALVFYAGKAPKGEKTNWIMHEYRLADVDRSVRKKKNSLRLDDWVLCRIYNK

GST-ANAC092(1-176) = target: T8, GST-ANAC092(1-176) (UniProt Q9FKA0)
T8 sequence: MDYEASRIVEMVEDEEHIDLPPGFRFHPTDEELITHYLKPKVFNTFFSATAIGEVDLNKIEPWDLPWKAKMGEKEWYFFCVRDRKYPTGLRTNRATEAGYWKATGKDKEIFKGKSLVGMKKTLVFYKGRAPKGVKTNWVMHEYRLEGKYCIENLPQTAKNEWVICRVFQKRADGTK

GST-NAP(1-166) = target: T9, GST-NAP(1-166) (UniProt O49255)
T9 sequence: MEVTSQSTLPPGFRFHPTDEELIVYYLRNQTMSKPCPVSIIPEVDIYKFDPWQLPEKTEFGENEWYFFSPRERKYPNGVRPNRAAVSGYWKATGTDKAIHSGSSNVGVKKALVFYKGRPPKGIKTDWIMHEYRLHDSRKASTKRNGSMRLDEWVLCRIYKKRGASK

[2] = target: T10, GST-ANAC092(1-285) full length (UniProt Q9FKA0)
T10 sequence: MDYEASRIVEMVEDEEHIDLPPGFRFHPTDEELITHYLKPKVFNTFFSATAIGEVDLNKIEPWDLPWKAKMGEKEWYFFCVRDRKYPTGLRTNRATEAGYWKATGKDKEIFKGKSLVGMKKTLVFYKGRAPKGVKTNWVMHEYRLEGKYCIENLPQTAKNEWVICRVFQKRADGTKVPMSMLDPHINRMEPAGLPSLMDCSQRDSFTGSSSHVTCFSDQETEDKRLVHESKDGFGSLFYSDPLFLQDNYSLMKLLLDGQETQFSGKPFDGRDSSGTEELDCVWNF

GST-NST2(1-184) = target: T11, GST-NST2(1-184) (UniProt Q9M274)
T11 sequence: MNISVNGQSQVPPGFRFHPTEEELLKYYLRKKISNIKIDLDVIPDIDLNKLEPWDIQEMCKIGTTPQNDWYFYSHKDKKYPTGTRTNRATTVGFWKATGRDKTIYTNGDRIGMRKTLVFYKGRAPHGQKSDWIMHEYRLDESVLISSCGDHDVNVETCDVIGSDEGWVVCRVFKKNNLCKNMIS

Sequence | binding signal (GST-NTL6(1-168)) | binding signal (GST-ANAC019 NAC domain) | binding signal (GST-ANAC055(1-171)) | binding signal (GST-NTL8 NAC domain) | binding signal (GST-VND3 NAC domain) | binding signal (GST-VND7 NAC domain) | binding signal [1] | binding signal (GST-WRKY1(266-371)) | binding signal (GST-ATAF1 NAC domain) | binding signal (GST-ANAC092(1-176)) | binding signal (GST-NAP(1-166)) | binding signal [2] | binding signal (GST-NST2(1-184))
GCGTACGC | -0.0563 E-score | 0.287 E-score | 0.265 E-score | -0.0138 E-score | 0.0861 E-score | 0.346 E-score | 0.134 E-score | -0.156 E-score |  |  |  |  | 
ACGCAATG | 0.0271 E-score | 0.32 E-score |  |  | 0.314 E-score | 0.311 E-score | 0.0544 E-score | 0.0356 E-score | 0.162 E-score |  |  |  | 
AAGTCAAG |  | -0.0129 E-score | 0.00688 E-score | -0.0807 E-score | -0.0719 E-score | -0.0261 E-score | -0.0534 E-score | 0.479 E-score |  | -0.0387 E-score | -0.115 E-score |  | 
TGAGGAAA |  | -0.0166 E-score | 0.0458 E-score | 0.429 E-score | 0.0216 E-score | -0.0128 E-score | 0.0459 E-score | 0.0414 E-score | 0.0379 E-score | 0.0937 E-score | 0.0209 E-score | -0.0367 E-score | 
AACGTAAG | 0.196 E-score |  | 0.213 E-score | 0.124 E-score | 0.289 E-score | 0.226 E-score | 0.0484 E-score | 0.019 E-score | 0.255 E-score |  | 0.204 E-score |  | 0.262 E-score
GAGGAAAC | 0.00167 E-score | 0.0142 E-score | 0.00211 E-score | 0.465 E-score | 0.0216 E-score | -0.0189 E-score | -0.137 E-score | -0.13 E-score |  |  |  |  | 0.017 E-score
ACGTGTAC | -0.111 E-score | 0.309 E-score | 0.286 E-score | -0.0962 E-score | 0.267 E-score | 0.206 E-score | -0.00108 E-score | -0.0273 E-score |  |  |  | 0.413 E-score | 
GCACGTTA | -0.00571 E-score | 0.153 E-score | 0.205 E-score | -0.121 E-score | 0.217 E-score | 0.246 E-score | -0.111 E-score | -0.173 E-score | 0.226 E-score |  |  | 0.464 E-score | 
AAGCACGC | 0.0272 E-score |  | 0.0401 E-score | -0.00597 E-score | -0.0287 E-score | 0.0817 E-score | -0.0114 E-score | -0.183 E-score |  | 0.32 E-score |  |  | 
AAGGGTCA |  | -0.0512 E-score | -0.0496 E-score | 0.0489 E-score | 0.0269 E-score | 0.029 E-score | -0.0224 E-score | 0.409 E-score | -0.0824 E-score | 0.0421 E-score | -0.0935 E-score | 0.0121 E-score | -0.00411 E-score
AGGAAAGG | 0.0725 E-score |  | -0.0786 E-score |  | -0.0383 E-score | 0.0354 E-score | -0.0699 E-score | 0.0426 E-score | -0.0755 E-score |  | -0.0741 E-score | 0.0104 E-score | 
ATCGCGTG | -0.178 E-score | -0.0654 E-score | -0.0663 E-score | -0.117 E-score | -0.00534 E-score | -0.0696 E-score | -0.138 E-score | -0.0193 E-score | -0.136 E-score |  | 0.0283 E-score |  | 
AGGGGAAA |  | 0.112 E-score | 0.0183 E-score |  | 0.0154 E-score | 0.132 E-score | 0.0561 E-score | -0.0554 E-score | 0.017 E-score | 0.191 E-score |  | 0.0577 E-score | -0.0321 E-score
TACGCGAA | -0.00694 E-score | 0.023 E-score | 0.0984 E-score | 0.0299 E-score | 0.0451 E-score | 0.0367 E-score | 0.2 E-score | -0.0407 E-score | 0.119 E-score |  | 0.0761 E-score |  | 
AGGAAACC |  | 0.0445 E-score | -0.0505 E-score |  | 0.0389 E-score | -0.154 E-score | -0.0105 E-score | -0.181 E-score | -0.0359 E-score | 0.0188 E-score | -0.00742 E-score |  | -0.00773 E-score
CTTTGACC | -0.0707 E-score | -0.0329 E-score | -0.0345 E-score | 0.0261 E-score | 0.039 E-score | -0.129 E-score | -0.0125 E-score | 0.488 E-score | -0.0593 E-score |  | -0.0305 E-score | -0.0981 E-score | 0.0033 E-score
AAGCAAGC | 0.167 E-score | 0.0929 E-score | -0.0323 E-score |  | 0.139 E-score | 0.114 E-score | -0.176 E-score | -0.23 E-score | -0.0987 E-score |  | -0.0647 E-score | 0.417 E-score | 
ACTCAACC | 0.0444 E-score | -0.0489 E-score |  | -0.119 E-score | -0.0806 E-score | -0.0824 E-score | 0.0852 E-score | -0.0492 E-score |  |  | -0.0323 E-score |  | 
GAAGTAAC | 0.381 E-score | 0.0356 E-score |  |  | -0.0252 E-score | 0.0217 E-score | 0.0123 E-score | -0.186 E-score |  |  | -0.0276 E-score |  | 
AACACGCA | -0.0794 E-score |  |  | -0.0353 E-score | 0.346 E-score | 0.34 E-score | 0.0167 E-score | -0.117 E-score | 0.315 E-score | 0.469 E-score |  |  | 
CTCACGCA | 0.0381 E-score |  |  |  | 0.194 E-score | 0.193 E-score | 0.0563 E-score | -0.0579 E-score |  |  |  |  | 
ACGCCATG | -0.135 E-score | -0.019 E-score | -0.0142 E-score | -0.0882 E-score | -0.105 E-score | 0.0848 E-score | -0.0411 E-score | -0.158 E-score | 0.0141 E-score |  | 0.154 E-score |  | 
TCGCGTAA |  | -0.00554 E-score | 0.0885 E-score | 0.0263 E-score | 0.0298 E-score | 0.14 E-score | 0.21 E-score | -0.0712 E-score |  | 0.283 E-score | 0.0199 E-score |  | 0.259 E-score
GCTAAGGA |  | -0.00951 E-score | -0.108 E-score | -0.0279 E-score | -0.129 E-score | -0.0159 E-score | -0.0841 E-score | -0.17 E-score | -0.0461 E-score | 0.0227 E-score | -0.045 E-score |  | -0.00148 E-score
GCACTCAA | -0.106 E-score | 0.0452 E-score | -0.0324 E-score | 0.0643 E-score | 0.00687 E-score | -0.0161 E-score | -0.0113 E-score | -0.203 E-score |  |  | -0.0648 E-score |  | 0.196 E-score
GGAGGGAA |  |  | -0.0817 E-score |  | -0.11 E-score | -0.0611 E-score | 0.106 E-score | -0.11 E-score | 0.03 E-score | 0.0257 E-score | 0.074 E-score | -0.166 E-score | -0.0429 E-score
